# PubChem BioAssay AID1347165 (National Center for Advancing Translational Sciences (NCATS), 2019)
# The campaign covered roughly 220,000 compounds. About 5,700 (2.6%) were called active. The inconclusive results got no clear call from the source; some entries with a clear call stand among them for comparison. Calls come from the whole dose curve; as a rule, active = well fitted inhibition curve with a large enough effect; inconclusive = small, poorly fitted or top-dose-only effect; inactive = no such curve, though single readings can be large or run the other way. Potencies beside an inconclusive call are fits to weak or partial responses and may not hold up.
# Molecular target: Lysine-specific demethylase 5B (Homo sapiens) (UniProt Q9UGL1)
# Assay: Primary screen for KDM5B Histone Demethylases FDH-coupled qHTS; note: nearly all actives have a fitted effect of over 70% in size; for activity change, negative = inhibition: 0% is about no effect
# Settings: FDH-coupled NADH fluorescence (FDH is formaldehyde dehydrogenase); activity change, negative = inhibition: at 57.7 µM (top of the series) unless noted
# Method in brief: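 Measured: NADH fluorescence change, 30 min, RT. System: KDM5BΔAP 200 nM final, H3K4me3 peptide, α-KG, Fe(II), ascorbate, NAD⁺ plus FDH, pH 7.5 HEPES. Compounds: titrated, 10 min pre-incubation with enzyme.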
# Potency is the fitted concentration of half-maximal effect; tags give direction and shape of the fitted curve.
# UniProt Q9UGL1, sequence (Q9UGL1 whole entry, looked up): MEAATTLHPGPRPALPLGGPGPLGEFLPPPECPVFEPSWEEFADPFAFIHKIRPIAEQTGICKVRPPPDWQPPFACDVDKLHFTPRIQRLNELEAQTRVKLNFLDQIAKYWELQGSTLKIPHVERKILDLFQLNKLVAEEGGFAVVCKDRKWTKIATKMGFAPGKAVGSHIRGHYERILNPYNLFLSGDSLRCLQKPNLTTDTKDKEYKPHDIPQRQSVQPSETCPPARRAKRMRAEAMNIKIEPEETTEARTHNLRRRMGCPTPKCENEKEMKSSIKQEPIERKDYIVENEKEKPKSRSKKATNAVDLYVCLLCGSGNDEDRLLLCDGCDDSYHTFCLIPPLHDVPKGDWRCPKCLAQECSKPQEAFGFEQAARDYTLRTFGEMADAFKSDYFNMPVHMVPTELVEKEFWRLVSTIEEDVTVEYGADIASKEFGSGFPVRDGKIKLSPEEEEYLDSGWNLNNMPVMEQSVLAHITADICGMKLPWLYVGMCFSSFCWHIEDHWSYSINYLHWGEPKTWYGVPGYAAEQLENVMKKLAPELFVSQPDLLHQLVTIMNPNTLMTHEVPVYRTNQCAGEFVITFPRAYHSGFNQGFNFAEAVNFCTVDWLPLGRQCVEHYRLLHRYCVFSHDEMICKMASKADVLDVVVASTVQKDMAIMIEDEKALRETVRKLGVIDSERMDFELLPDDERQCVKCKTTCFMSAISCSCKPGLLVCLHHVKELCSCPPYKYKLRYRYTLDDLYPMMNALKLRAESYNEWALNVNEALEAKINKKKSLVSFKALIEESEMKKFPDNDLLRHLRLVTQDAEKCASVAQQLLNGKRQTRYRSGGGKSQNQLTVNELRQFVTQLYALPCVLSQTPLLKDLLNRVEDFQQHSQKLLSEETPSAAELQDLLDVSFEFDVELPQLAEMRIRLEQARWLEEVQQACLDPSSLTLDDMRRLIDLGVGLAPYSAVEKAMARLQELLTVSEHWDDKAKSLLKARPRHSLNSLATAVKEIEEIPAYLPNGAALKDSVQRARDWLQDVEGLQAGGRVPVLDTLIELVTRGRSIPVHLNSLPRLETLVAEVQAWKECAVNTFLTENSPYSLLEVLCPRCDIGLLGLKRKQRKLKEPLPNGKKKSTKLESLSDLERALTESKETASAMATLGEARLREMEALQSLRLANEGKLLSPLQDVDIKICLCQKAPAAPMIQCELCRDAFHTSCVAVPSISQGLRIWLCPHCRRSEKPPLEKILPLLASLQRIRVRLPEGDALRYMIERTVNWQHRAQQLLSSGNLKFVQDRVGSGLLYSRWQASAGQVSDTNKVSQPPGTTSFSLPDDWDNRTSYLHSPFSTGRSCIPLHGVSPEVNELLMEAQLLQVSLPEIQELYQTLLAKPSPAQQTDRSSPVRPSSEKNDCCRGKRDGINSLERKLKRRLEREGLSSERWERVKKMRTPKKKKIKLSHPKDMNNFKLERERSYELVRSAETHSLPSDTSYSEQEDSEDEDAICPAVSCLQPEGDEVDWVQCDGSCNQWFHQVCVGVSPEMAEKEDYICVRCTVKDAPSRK
Compound,"activity change, negative = inhibition",Potency
O=C(CSc1nc(C(F)(F)F)nc2ccccc12)NC1CCCCCC1,inactive: 11.7%,–
COc1ccc(Nc2cc(C(=O)NCc3ccccc3)c3ccccc3n2)cc1,inactive: 138%,–
N#CCCNC(Cc1ccccc1)C(=O)O (stereo unspecified),inactive: 16.4%,–
CC(C)OCCCn1c(=O)c2ccccc2n2c(-c3ccc(F)c(F)c3)nnc12,–,"inconclusive: 15.8 µM [inhibitor, partial curve, poor fit]"
Cc1ccc(S(=O)(=O)c2nnn3c2nc(NCc2ccc(F)cc2)c2sccc23)cc1C,–,"inconclusive: 7.94 µM [inhibitor, partial curve, poor fit]"
CC(C)c1ccc(CNC(=O)c2ccc3c(c2)N(C)C2CCCCN2C3=O)cc1 (stereo unspecified),–,"inconclusive: 17.8 µM [inhibitor, partial curve, poor fit]"
C#CCNC(=O)c1onc(-c2ccc(F)cc2)c1[C@H](C)O,inactive: -33.6% [at 115 µM],–
COc1ccc(OC)c(NC(=O)Cn2c(-c3ccccc3)nc(C)c(CCO)c2=O)c1,–,"inconclusive: 22.4 µM [inhibitor, partial curve]"
Cc1[nH]c2ccc(C(=O)NCCc3ccccc3Cl)cc2c1C,–,"inconclusive: 28.2 µM [inhibitor, single point]"
Cc1cccc(NC(=O)CN2C(=O)COc3ccc(S(=O)(=O)Nc4ccccc4)cc32)c1C,–,"inconclusive: 14.1 µM [inhibitor, partial curve, poor fit]"
CC(C)N1CCc2c(C#N)c(NCc3cccnc3)n3cnnc3c2C1,–,"inconclusive: 35.5 µM [inhibitor, single point]"
O=C(O)CCNS(=O)(=O)c1ccc(OC(F)(F)F)cc1,inactive: 12.9%,–
CC1(c2ccccc2)N(Cc2ccccc2F)C(=O)OC12CCN(C(=O)c1cnccn1)CC2 (stereo unspecified),inactive: 3.37%,–
Cc1ccc2oc([C@H]3CCN(Cc4ccc(N(C)C)cc4)C3)nc2c1,–,"inconclusive: 35.5 µM [inhibitor, single point]"
COCCCNc1oc(-c2ccccc2)nc1C#N,–,"inconclusive: 28.2 µM [inhibitor, partial curve, poor fit]"
Cc1cnc(C(=O)N[C@@H]2CCC[C@@H]2C(=O)N2CCN(CC(C)C)CC2)cn1,inactive: -28.4%,–
CC(C)c1ccc(/C=N/NC(=O)C2CCCCC2)cc1,inactive: 7.47%,–
CCNc1oc(/C=C/c2ccc(OC)c(OC)c2)nc1C#N,–,"inconclusive: 25.1 µM [inhibitor, partial curve, poor fit]"
CCCNS(=O)(=O)c1ccc(C(=O)NCc2cc3n(n2)CCNC3)cc1,inactive: -25.2%,–
Cc1ccc(N2CCC(NC(=O)Cc3cccc(F)c3)C2=O)cc1 (stereo unspecified),inactive: -9.94%,–
COc1ccc2nc(C[C@@H]3C[C@@H](C(C)C)[C@H](CNC4CCCCC4)C=C3C)[nH]c2c1,inactive: -26% [at 86.2 µM],–
